Source: US20190309059A1

Key:
[1] = biological target: his-labeled human IL-13 (immunogen A) (human) (UniProt P35225); assay: FACS blocking, biotin-IL-13 on IL-13Ra1/IL-4Ra HEK293 cells; antibody at 0.01 nM
[2] = biological target: his-labeled human IL-13 (immunogen A) (human) (UniProt P35225); assay: FACS blocking, biotin-IL-13 on IL-13Ra1/IL-4Ra HEK293 cells; antibody at 166.67 nM
[3] = biological target: his-labeled human IL-13 (immunogen A) (human) (UniProt P35225); assay: FACS blocking, biotin-IL-13 on IL-13Ra2 HEK293 cells; antibody at 0.01 nM
[4] = biological target: his-labeled human IL-13 (immunogen A) (human) (UniProt P35225); assay: ELISA: biotin-labeled immunogen A on streptavidin plate, antibody titrated, HRP secondary antibody, OD450
[5] = biological target: his-labeled human IL-13 (immunogen A) (human) (UniProt P35225); assay: FACS blocking, biotin-IL-13 on IL-13Ra2 HEK293 cells; antibody at 0.27 nM
[6] = biological target: his-labeled human IL-13 (immunogen A) (human) (UniProt P35225); assay: FACS blocking, biotin-IL-13 on IL-13Ra2 HEK293 cells; antibody at 6.67 nM
[7] = biological target: his-labeled human IL-13 (immunogen A) (human) (UniProt P35225); assay: ELISA, biotin-immunogen A; antibody at 0.53 nM
[8] = biological target: his-labeled human IL-13 (immunogen A) (human) (UniProt P35225); assay: ELISA, biotin-immunogen A; antibody at 333 nM
[9] = biological target: his-labeled human IL-13 (immunogen A) (human) (UniProt P35225); assay: FACS blocking, biotin-IL-13 on IL-13Ra2 HEK293 cells; antibody at 0.05 nM
[10] = biological target: his-labeled human IL-13 (immunogen A) (human) (UniProt P35225); assay: FACS blocking, biotin-IL-13 on IL-13Ra2 HEK293 cells; antibody at 0.002 nM
[11] = biological target: his-labeled human IL-13 (immunogen A) (human) (UniProt P35225); assay: ELISA, biotin-immunogen A; antibody at 0.004 nM
[12] = biological target: his-labeled human IL-13 (immunogen A) (human) (UniProt P35225); assay: ELISA, biotin-immunogen A; antibody at 0.11 nM
[13] = biological target: his-labeled human IL-13 (immunogen A) (human) (UniProt P35225); assay: ELISA, biotin-immunogen A; antibody at 2.7 nM
[14] = biological target: his-labeled human IL-13 (immunogen A) (human) (UniProt P35225); assay: FACS blocking, biotin-IL-13 on IL-13Ra1/IL-4Ra HEK293 cells; antibody at 6.67 nM
[15] = biological target: his-labeled human IL-13 (immunogen A) (human) (UniProt P35225); assay: FACS blocking, biotin-IL-13 on IL-13Ra1/IL-4Ra HEK293 cells; antibody at 0.05 nM
[16] = biological target: his-labeled human IL-13 (immunogen A) (human) (UniProt P35225); assay: FACS blocking, biotin-IL-13 on IL-13Ra2 HEK293 cells; antibody at 33.33 nM
[17] = biological target: his-labeled human IL-13 (immunogen A) (human) (UniProt P35225); assay: FACS blocking, biotin-IL-13 on IL-13Ra1/IL-4Ra HEK293 cells; antibody at 0.002 nM
[18] = biological target: his-labeled human IL-13 (immunogen A) (human) (UniProt P35225); assay: FACS blocking, biotin-IL-13 on IL-13Ra1/IL-4Ra HEK293 cells; antibody at 0.27 nM
[19] = biological target: his-labeled human IL-13 (immunogen A) (human) (UniProt P35225); assay: ELISA, biotin-immunogen A; antibody at 0.021 nM
[20] = biological target: his-labeled human IL-13 (immunogen A) (human) (UniProt P35225); assay: FACS blocking, biotin-IL-13 on IL-13Ra1/IL-4Ra HEK293 cells; antibody at 1.33 nM
[21] = biological target: his-labeled human IL-13 (immunogen A) (human) (UniProt P35225); assay: FACS blocking, biotin-IL-13 on IL-13Ra1/IL-4Ra HEK293 cells; antibody at 33.33 nM
[22] = biological target: his-labeled human IL-13 (immunogen A) (human) (UniProt P35225); assay: cell-based or functional assay
[23] = biological target: his-labeled human IL-13 (immunogen A) (human) (UniProt P35225); assay: FACS blocking, biotin-IL-13 on IL-13Ra2 HEK293 cells; antibody at 1.33 nM
[24] = biological target: his-labeled human IL-13 (immunogen A) (human) (UniProt P35225); assay: ELISA, biotin-immunogen A; antibody at 67 nM
[25] = biological target: his-labeled human IL-13 (immunogen A) (human) (UniProt P35225); assay: ELISA, biotin-immunogen A; antibody at 13.3 nM
[26] = biological target: his-labeled human IL-13 (immunogen A) (human) (UniProt P35225); assay: FACS blocking, biotin-IL-13 on IL-13Ra2 HEK293 cells; antibody at 166.67 nM
[27] = biological target: his-labeled human IL-13 (immunogen A) (human) (UniProt P35225); assay: FACS inhibition of IL-13 on hIL-13Ra1/hIL-4Ra 293 cells; phage supernatant 1:5
[28] = biological target: his-labeled human IL-13 (immunogen A) (human) (UniProt P35225); assay: FACS inhibition of IL-13 on hIL-13Ra2 293 cells; phage supernatant 1:100
[29] = biological target: his-labeled human IL-13 (immunogen A) (human) (UniProt P35225); assay: FACS inhibition of IL-13 on hIL-13Ra1/hIL-4Ra 293 cells; phage supernatant 1:25
[30] = biological target: his-labeled human IL-13 (immunogen A) (human) (UniProt P35225); assay: FACS inhibition of IL-13 on hIL-13Ra1/hIL-4Ra 293 cells; phage supernatant 1:1
[31] = biological target: his-labeled human IL-13 (immunogen A) (human) (UniProt P35225); assay: FACS inhibition of IL-13 on hIL-13Ra2 293 cells; phage supernatant 1:10

B1: hP4_4H12 (fully human IL-13 antibody) (antibody, V domains shown)
VH: EVQLVETGGGVVQPGRSLRLSCAASGFTFSSYAMHWVRQAPGKGLEWVAVISYDGSNKYYADSVKGRFTISRDNSKNTLYLQMNSLRAEDTAVYYCARDPVGYCSGGSCYYYGMDVWGQGTTVTVSS
VL: EIVMTQSPATLSLSPGERATLS[about 80 residues omitted here]TFGLGTKVVIK
mean fluorescence intensity [1]: 59 | mean fluorescence intensity [2]: 19.6 | mean fluorescence intensity [3]: 48.4 | EC50 (read off the curve) [4]: 0.4 nM | mean fluorescence intensity [5]: 56.8 | mean fluorescence intensity [6]: 75.5 | OD450 nm [7]: 2.1 | OD450 nm [8]: 3.57 | mean fluorescence intensity [9]: 51.8 | mean fluorescence intensity [10]: 51.2 | OD450 nm [11]: 0.09 | OD450 nm [12]: 0.69 | OD450 nm [13]: 3.09 | mean fluorescence intensity [14]: 32.6 | mean fluorescence intensity [15]: 58.4 | mean fluorescence intensity [16]: 59.1 | mean fluorescence intensity [17]: 62.1 | mean fluorescence intensity [18]: 55.4 | OD450 nm [19]: 0.2 | mean fluorescence intensity [20]: 47.8 | mean fluorescence intensity [21]: 21.9 | TARC (pg/mL), A549 cells + IL-13 + TNFα; antibody at 0.004 nM [22]: 2460 pg/mL | TARC (pg/mL), A549 cells + IL-13 + TNFα; antibody at 0.021 nM [22]: 2760 pg/mL | TARC (pg/mL), A549 cells + IL-13 + TNFα; antibody at 0.11 nM [22]: 2760 pg/mL | TARC (pg/mL), A549 cells + IL-13 + TNFα; antibody at 0.5 nM [22]: 2590 pg/mL | TARC (pg/mL), A549 cells + IL-13 + TNFα; antibody at 2.7 nM [22]: 2530 pg/mL | TARC (pg/mL), A549 cells + IL-13 + TNFα; antibody at 13.3 nM [22]: 1350 pg/mL | TARC (pg/mL), A549 cells + IL-13 + TNFα; antibody at 66.7 nM [22]: 339 pg/mL | mean fluorescence intensity [23]: 72.2 | OD450 nm [24]: 3.55 | OD450 nm [25]: 3.61 | mean fluorescence intensity [26]: 49.7

B2: P4_4H12 (phage clone, lead antibody from the phage ScFv antibody library) (scFv, V domains shown)
VH: B1 VH
VL: EIVMTQSPATLSLSPGERATLS[about 80 residues omitted here]TFGLGTKVVIK
inhibition rate [27]: 71.7% | inhibition rate [28]: -5.6% | inhibition rate [29]: 30.8% | inhibition rate [30]: 88.7% | inhibition rate [31]: -6.9%
